# Laboratory results taken from the supplement of paper PMC11417369.
# The list shows a part of the results.
# Tested on: PfAP2-HC AP2 domain (GST-tagged)
# Assay: gcPBM binding intensity (ln(normalized median fluorescence intensity)); higher = stronger DNA binding
# Procedure, shortened: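 Alexa488 anti-GST antibody, scanned at 488 nm, detected GST-tagged P. falciparum DNA-binding domains that had been expressed in E. coli and incubated for 1 h on an Agilent 4 × 180k array. The array carried primer-extended double-stranded 36-bp intergenic genomic probes and negative controls. Binding intensity is the highest Masliner-normalised natural-log median intensity across replicate spots of either orientation of each probe.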
row,Sequence,gcPBM binding intensity (ln)
1,AAAAAATAATATTGTACACACATAAATTCTTTGTCA [CACACA_site5187],9.82
2,TATGTGTATACAATATGTACATATGTTAACTTGTAT [XGTACX_site872],9.78
3,GCGTAATCTATTTGCACACTTATTTGTTCTTAAAAA [CACACA_site672],9.73
4,TTAAATAAATATAAGTGTACATACACACTTTACAAT [XGTACX_site6348],9.72
5,GCATATGTTCAGCGTTGTACATAAAAAAAAACATAT [XGTACX_site5974],9.49
6,GTTTAAAGTTGAACAAGTACACATTTATATAAGGCA [XGTACX_site351],9.57
7,TTTATTTATTACTAAAGTACTAAATCATATAATTAT [XGTACX_site3654],9.46
8,TTTTGAAAGTTTTTGTGTCCACATATATTTATATAT [XGTACX_site6563],9.82
9,TAAAAATATAAAACATGTACATATATGCATATATTT [XGTACX_site8093],9.73
10,ATTATAAACCAGAATGCATGTAGATGAATCTTTTCT [TGCATGCA_site284],9.6
11,ATATCATAAGTAGAAACACACAATTAGATTTTTTCC [CACACA_site2353],9.78
12,TTTTATAAATACACACGTACGTGTGCATAACGTTTT [XGTACX_site3199],10.1
13,AAAAAAAATAATATTGTACACACATAAATTCTTTGT [CACACA_site8654],10.1
14,TACTTTTTAAAAATGTTTTATATAATAAAAAGATAT [CACACA_negctrl_site678],9.47
15,TAAGCCTTTCTATTATGTACTTATTAAAACATGTAG [XGTACX_site8022],9.41
16,CTTATATTAAAACACACACACGCACAAAACAGAAAT [CACACA_site1462],11
17,AAATTTATTTCTGTGTGTCCACAAAAAAAAATCTTT [XGTACX_site691],9.55
18,TTTTTTTTTTTCAATAGTACTTTCCATTTACATATA [XGTACX_site3889],9.71
19,TAATTGAGCAAATGAGTGCACAGCATAAAGTATAGT [GTGCAC_site9497],10.1
20,AAATTTAAAATAAGTAGTACATAATATAAATAAATA [XGTACX_site3592],9.67
21,TATAAAAGAAACTATACACACATATTTTAAATATTT [CACACA_site2753],9.8
22,GTACTTGTATTATGCACACATATAATTAAACATATA [CACACA_site3312],9.87
23,TAATATTATATTATATGTACATAACAAATTATATTT [XGTACX_site4296],9.67

row,Sequence,gcPBM binding intensity (ln)
1,ATGAAAAAATTTAAATGTACATTACATATATTTATT [XGTACX_site2524],9.61
2,TTTTTTTCTCTTTTTATTACAAAAAGGGTTTATATA [TGCATGCA_negctrl_site75],9.25
3,ATGAGTAACATATTTGTGCACATATGGTTATTTTTA [GTGCAC_site9541],9.65
4,AAAAAAAATTCCAGTACACACAATAATACTAAAAAT [CACACA_site2801],10
5,AAAAATTACAAAAATGCATGTACTATTCATATTTTT [TGCATGCA_site918],9.79
6,ATGCATATAATTATATGTACATATAAGAAATATATA [XGTACX_site517],9.78
7,CATTTATTATGATAAAGTACTTAAATTAATAGATAA [XGTACX_site3566],9.37
8,ATAAAAAACAGTGGCACACATTATGTATCCACCTTT [CACACA_site5958],9.75
9,CATATAAAGATATGAACACACAAAAAGAATATTTCC [CACACA_site6811],9.88
10,AATAATAAAAAATACACACACATATAAATATATTAC [CACACA_site7597],10.3
11,AGGACACATATATGCAAAAAAAAAAAAAAAAAAAAA [TGCATGCA_negctrl_site427],8.93
12,TTCCGAACGACCTAAAGTACATGTATTTCAACTTTT [XGTACX_site1220],9.76
13,TATGCACACAATATATGTACTTATATATTTTAAAAA [XGTACX_site5482],9.7
14,TTTTATAAAAAAACTATAAAAATATATAGTACTTAA [CACACA_negctrl_site440],9.21
15,TCTTTTTTTTTTTTTTTTTCTTCTTCTCAATATAAA [GTGCAC_negctrl_site303],9.44
16,TAGTGTATGATAATATGTACATACATTTATATAATA [XGTACX_site6330],9.78
17,CATAATATGTGGACTTTACACACTTGTTTTAAAATT [CACACA_site819],9.73
18,TATATGTATAGAAAATGTACATATAAATATATATAT [XGTACX_site3420],9.88
19,TAAAATTAATTTCTGTTGCACTTATTATTAATTAAC,9.7
20,TTTTTTTTTTTTTGCACACACCATATTTATAGAAAT [CACACA_site5772],10.2
21,ATATTATACCCGTGTACACATTATAACCATATATAA [CACACA_site5933],9.74
22,AAATATATCATACAAAGTACTTGGAATTAATATATA [XGTACX_site8907],9.64
23,AATATAATATAATGCACACATAAAACAAAAAAAAAA [CACACA_site3012],9.92

row,Sequence,gcPBM binding intensity (ln)
1,TAATTTTTCCAACTTTGTACAGATATATTAATAAAA [XGTACX_site7856],9.06
2,TCTTTTAAATAACAACATAAATAAATAAATAAATAA [GTGCAC_negctrl_site319],9.28
3,GTTGATACATGAAGCTGTACATAATATTTGTCATTT [XGTACX_site8628],9.73
4,GTCATATTAATATGTACACACATATTTATATTTATA [CACACA_site6798],9.83
5,TTTTTACTATTTATATGACTAAAAATATATTGAATA [CACACA_negctrl_site188],9.42
6,TAAATTAATAAACAAGTGCATATATATATATATATA,9.5
7,CAAGCACACGGACACACACACACACGCGCACGCACA [CACACA_site6307],11.3
8,TTTTATGTAACATCACGTACTTATATTTAAGTATTC [XGTACX_site7459],9.74
9,CAATTTATTTTTATTACACACTATCCAAGTAATTTC [CACACA_site7402],9.78
10,TATAGCAAAAAATTTACACACATGTTTTTTCTATAC [CACACA_site325],9.9
11,GGCATTTTATGAAGTAGTACCATAAATATTAAAGAT [XGTACX_site5287],9.59
12,ATGTTTTATAAAAGGCGTACACATATGCTTAAGTAA [XGTACX_site6232],9.71
13,CCTTTATTTTATATGTGTACTAAATTGTATATATAT [XGTACX_site8717],9.75
14,CTGAAGGAAAAAGAAAGTACTTTTTTTTTTTTGAAG [XGTACX_site5973],9.05
15,AAAAAAAAAATATCATGTACAAATATAATAAAATTT [XGTACX_site3896],9.79
16,AAATTTTTTATGAACACACAAATACACGCACTCAAA [CACACA_site7286],10.1
17,AATAATAAAATAAAGGCATGCACAATATGCTATAAA [TGCATGCA_site645],10.1
18,TAAAATATATAAAACTGTACATTTTAAAGGCACAAC [XGTACX_site8342],9.98
19,AATTAAAATAGTAATACACACTTCATAGGAAATGAT [CACACA_site5045],9.75
20,TATGTATCAAATAAATGTACATATATATATATATAT [XGTACX_site2189],9.59
21,TGATTAAATAAATATATATATTTATATATTATACAG [CACACA_negctrl_site1596],9.4
22,TATATATATATATATGTGCACTGGACATATTTTTAT [GTGCAC_site9721],9.89
23,GCTCTATCAAAAAAATGTACACATATTATCATTCAT [XGTACX_site143],9.64

row,Sequence,gcPBM binding intensity (ln)
1,CAAATAAATATTAAAAGTACACACAGATACACTAAT [XGTACX_site3749],10.2
2,TTTTTATTTAATAGTTGTACATTGAAAAATATGTAT [XGTACX_site3025],9.41
3,AATATTTATATTTAGTGTACAGAAATAAAAAAAAAA [XGTACX_site6066],9.68
4,CAAAAAAAAAAAAAAACACACATTAAATTAGAAAGA [CACACA_site7271],9.66
5,ATATACATTTAAATGTGTACATAATAAAATAAAAAA [XGTACX_site8170],9.54
6,GCTAATTTATTTTGCAGTACATATATAATAATATAT [XGTACX_site478],9.4
7,ACCCATAAAAATTATGCACACTTAATAAAGCGAAAT [CACACA_site5722],9.81
8,ATAATTTATTTTAAAAGTACTCAATTTGCTTTTCTC [XGTACX_site5749],9.48
9,TCCTCATTTTATCATACACACTTGTTTATATGGGTG [CACACA_site4650],9.74
10,TTTACAAAAAATTATACACACACGTACAGATAAATA [CACACA_site4678],10.1
11,TATATTTATTATAATTGTACATAAAATAAACTAAGA [XGTACX_site4318],9.46
12,AAATAATTAAACATATGTACATATTATATATATATA [XGTACX_site6774],9.68
13,TTTTAAAGTTGTGAGCTTCATTTTTATTTATATGTA [CACACA_negctrl_site1505],9.59
14,TTACAATTAATAAAGTGTACTTAACTATTATATATA [XGTACX_site481],9.6
15,TTGATCTATAATAATACACACTTACATAATTAATTA [CACACA_site6273],9.62
16,ATATATATATATGTCTGTACATAAAAAATAATAAAT [XGTACX_site3122],9.68
17,ATATTCCTACATACAACACACGACGTTCTCATAAGA [CACACA_site231],9.75
18,GGAAAATGAAAAACAAAAAAAAAAAAAAAAAAATGA [TGCATGCA_negctrl_site432],9.32
19,AAAAATAGACAAAAGAGTACAAGAAAAAAAGGGTTC [XGTACX_site7843],9.89
20,ACATCTGTTATTTGTGGTACTAAAAAAATATATAGT [XGTACX_site8322],9.51
